Measurements: the supplement of paper PMC8728848
The list shows a part of the results.

Columns and labels:
Assay in all cases: glycan array binding signal (z-score within array); higher = stronger binding
Settings in all cases: glycan notation: IUPAC condensed, linker removed
[1] = biological target: Fuc(a1-2)Gal
In short: (§1)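 Glycan array data were curated from 3228 arrays in the Consortium for Functional Glycomics database and kept only where the protein sequence was available. Glycan names were converted to IUPAC-condensed notation, and columns mapping to the same glycan were averaged. The binding signal is a within-array Z-score, averaged across arrays of the same protein sequence at different concentrations or buffers and across linkers. Negative Z-scores can be read as non-binding.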

[2] = biological target: Fuc(a1-2)Gal(b1-3)GalNAc
In short: as §1

[3] = biological target: Fuc(a1-2)Gal(b1-3)GalNAc(a1-3)[Fuc(a1-2)]Gal(b1-4)Glc
In short: as §1

[4] = biological target: Fuc(a1-2)Gal(b1-3)GalNAc(a1-3)[Fuc(a1-2)]Gal(b1-4)GlcNAc
In short: as §1

[5] = biological target: Fuc(a1-2)Gal(b1-3)GalNAc(b1-3)Gal
In short: as §1

[6] = biological target: Fuc(a1-2)Gal(b1-3)GalNAc(b1-3)Gal(a1-4)Gal(b1-4)Glc
In short: as §1

[7] = biological target: Fuc(a1-2)Gal(b1-3)GalNAc(b1-4)[Neu5Ac(a2-3)]Gal(b1-4)Glc
In short: as §1

[8] = biological target: Fuc(a1-2)Gal(b1-3)GlcNAc
In short: as §1

[9] = biological target: Fuc(a1-2)Gal(b1-3)GlcNAc(b1-2)Man(a1-3)[Fuc(a1-2)Gal(b1-3)GlcNAc(b1-2)Man(a1-6)]Man(b1-4)GlcNAc(b1-4)GlcNAc
In short: as §1

[10] = biological target: Fuc(a1-2)Gal(b1-3)GlcNAc(b1-2)Man(a1-3)[Fuc(a1-2)Gal(b1-3)GlcNAc(b1-2)Man(a1-6)]Man(b1-4)GlcNAc(b1-4)[Fuc(a1-6)]GlcNAc
In short: as §1

[11] = biological target: Fuc(a1-2)Gal(b1-3)GlcNAc(b1-3)Gal(b1-4)Glc
In short: as §1

[12] = biological target: Fuc(a1-2)Gal(b1-3)GlcNAc(b1-3)GalNAc
In short: as §1

[13] = biological target: Fuc(a1-2)Gal(b1-3)GlcNAc(b1-3)[Fuc(a1-2)Gal(b1-3)GlcNAc(b1-6)]GalNAc
In short: as §1

[14] = biological target: Fuc(a1-2)Gal(b1-3)GlcNAc(b1-3)[Gal(b1-4)GlcNAc(b1-6)]Gal(b1-4)Glc
In short: as §1

[15] = biological target: Fuc(a1-2)Gal(b1-3)GlcNAc(b1-3)[Neu5Ac(a2-6)Gal(b1-4)GlcNAc(b1-6)]Gal(b1-4)Glc
In short: as §1

[16] = biological target: Fuc(a1-2)Gal(b1-3)GlcNAc6S
In short: as §1

[17] = biological target: Fuc(a1-2)Gal(b1-3)[Fuc(a1-4)]GlcNAc
In short: as §1

[18] = biological target: Fuc(a1-2)Gal(b1-3)[Fuc(a1-4)]GlcNAc(b1-2)Man(a1-3)[Fuc(a1-2)Gal(b1-3)[Fuc(a1-4)]GlcNAc(b1-2)Man(a1-3)]Man(b1-4)GlcNAc(b1-4)GlcNAc
In short: as §1

[19] = biological target: Fuc(a1-2)Gal(b1-3)[Fuc(a1-4)]GlcNAc(b1-2)Man(a1-3)[Fuc(a1-2)Gal(b1-3)[Fuc(a1-4)]GlcNAc(b1-2)Man(a1-6)]Man(b1-4)GlcNAc(b1-4)[Fuc(a1-6)]GlcNAc(b1-4)[Fuc(a1-6)]GlcNAc
In short: as §1

[20] = biological target: Fuc(a1-2)Gal(b1-3)[Fuc(a1-4)]GlcNAc(b1-3)[Fuc(a1-3)[Gal(b1-4)]GlcNAc(b1-6)]Gal(b1-4)Glc
In short: as §1

[21] = biological target: Fuc(a1-2)Gal(b1-3)[Fuc(a1-4)]GlcNAc(b1-3)[Gal(b1-4)GlcNAc(b1-6)]Gal(b1-4)Glc
In short: as §1

[22] = biological target: Fuc(a1-2)Gal(b1-4)Glc
In short: as §1

[23] = biological target: Fuc(a1-2)Gal(b1-4)Glc6S
In short: as §1

[24] = biological target: Fuc(a1-2)Gal(b1-4)GlcNAc
In short: as §1

[25] = biological target: Fuc(a1-2)Gal(b1-4)GlcNAc(b1-2)Man
In short: as §1

[26] = biological target: Fuc(a1-2)Gal(b1-4)GlcNAc(b1-2)Man(a1-3)[Fuc(a1-2)Gal(b1-4)GlcNAc(b1-2)Man(a1-6)]Man(b1-4)GlcNAc(b1-4)GlcNAc
In short: as §1

[27] = biological target: Fuc(a1-2)Gal(b1-4)GlcNAc(b1-2)Man(a1-3)[Fuc(a1-2)Gal(b1-4)GlcNAc(b1-2)Man(a1-6)]Man(b1-4)GlcNAc(b1-4)[Fuc(a1-6)]GlcNAc
In short: as §1

[28] = biological target: Fuc(a1-2)Gal(b1-4)GlcNAc(b1-2)[Fuc(a1-2)Gal(b1-4)GlcNAc(b1-4)]Man(a1-3)[Fuc(a1-2)Gal(b1-4)GlcNAc(b1-2)Man(a1-6)]Man(b1-4)GlcNAc(b1-4)GlcNAc
In short: as §1

[29] = biological target: Fuc(a1-2)Gal(b1-4)GlcNAc(b1-3)Gal(b1-4)GlcNAc
In short: as §1

[30] = biological target: Fuc(a1-2)Gal(b1-4)GlcNAc(b1-3)Gal(b1-4)GlcNAc(b1-2)Man(a1-3)[Fuc(a1-2)Gal(b1-4)GlcNAc(b1-3)Gal(b1-4)GlcNAc(b1-2)Man(a1-6)]Man(b1-4)GlcNAc(b1-4)GlcNAc
In short: as §1

B1: LecB PA7 (Pseudomonas aeruginosa) (protein)
chain: MATQGVFTLPANTRFGVTAFANSSATQTVKVLVNNETAATFTGQSTNNAVIGSQVLNSGGGGKVQIQVSVNGRSSDLVSAQVILANELNVALVGSEDSTDNDYNDAVVVINWPLG
[1]
  glycan array binding signal (z-score): 1.56
[2]
  glycan array binding signal (z-score): 0.771
[3]
  glycan array binding signal (z-score): 1.71
[4]
  glycan array binding signal (z-score): 1.07
[5]
  glycan array binding signal (z-score): 0.062
[6]
  glycan array binding signal (z-score): 2.76
[7]
  glycan array binding signal (z-score): 0.732
[8]
  glycan array binding signal (z-score): 1.44
[9]
  glycan array binding signal (z-score): -0.011
[10]
  glycan array binding signal (z-score): 0.703
[11]
  glycan array binding signal (z-score): 1.78
[12]
  glycan array binding signal (z-score): 1.09
[13]
  glycan array binding signal (z-score): -0.033
[14]
  glycan array binding signal (z-score): 0.558
[15]
  glycan array binding signal (z-score): 0.012
[16]
  glycan array binding signal (z-score): 1.33
[17]
  glycan array binding signal (z-score): 1.14
[18]
  glycan array binding signal (z-score): 0.011
[19]
  glycan array binding signal (z-score): 1.24
[20]
  glycan array binding signal (z-score): 0.726
[21]
  glycan array binding signal (z-score): 0.667
[22]
  glycan array binding signal (z-score): 1.39
[23]
  glycan array binding signal (z-score): 1.89
[24]
  glycan array binding signal (z-score): 2.27
[25]
  glycan array binding signal (z-score): -0.131
[26]
  glycan array binding signal (z-score): 1.78
[27]
  glycan array binding signal (z-score): 1.02
[28]
  glycan array binding signal (z-score): 1.33
[29]
  glycan array binding signal (z-score): 3.5
[30]
  glycan array binding signal (z-score): 10.1
